Measurements: publication PMC4336329 (PLoS ONE, 2015)
About 14,000 (4.5%) of roughly 310,000 compounds showed an effect of 50% or more. The effect is printed as a negative number. The list shows a part of the results.

Target: human ether-à-go-go-related gene (hERG) potassium channel (human, UniProt Q12809)
Assay: primary screen, population patch clamp on CHO cells stably expressing hERG
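Further: peak tail current of the secondary pulse compared with the same well before compound.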

Sequence of human ether-à-go-go-related gene (hERG) potassium channel (Q12809 whole entry, looked up): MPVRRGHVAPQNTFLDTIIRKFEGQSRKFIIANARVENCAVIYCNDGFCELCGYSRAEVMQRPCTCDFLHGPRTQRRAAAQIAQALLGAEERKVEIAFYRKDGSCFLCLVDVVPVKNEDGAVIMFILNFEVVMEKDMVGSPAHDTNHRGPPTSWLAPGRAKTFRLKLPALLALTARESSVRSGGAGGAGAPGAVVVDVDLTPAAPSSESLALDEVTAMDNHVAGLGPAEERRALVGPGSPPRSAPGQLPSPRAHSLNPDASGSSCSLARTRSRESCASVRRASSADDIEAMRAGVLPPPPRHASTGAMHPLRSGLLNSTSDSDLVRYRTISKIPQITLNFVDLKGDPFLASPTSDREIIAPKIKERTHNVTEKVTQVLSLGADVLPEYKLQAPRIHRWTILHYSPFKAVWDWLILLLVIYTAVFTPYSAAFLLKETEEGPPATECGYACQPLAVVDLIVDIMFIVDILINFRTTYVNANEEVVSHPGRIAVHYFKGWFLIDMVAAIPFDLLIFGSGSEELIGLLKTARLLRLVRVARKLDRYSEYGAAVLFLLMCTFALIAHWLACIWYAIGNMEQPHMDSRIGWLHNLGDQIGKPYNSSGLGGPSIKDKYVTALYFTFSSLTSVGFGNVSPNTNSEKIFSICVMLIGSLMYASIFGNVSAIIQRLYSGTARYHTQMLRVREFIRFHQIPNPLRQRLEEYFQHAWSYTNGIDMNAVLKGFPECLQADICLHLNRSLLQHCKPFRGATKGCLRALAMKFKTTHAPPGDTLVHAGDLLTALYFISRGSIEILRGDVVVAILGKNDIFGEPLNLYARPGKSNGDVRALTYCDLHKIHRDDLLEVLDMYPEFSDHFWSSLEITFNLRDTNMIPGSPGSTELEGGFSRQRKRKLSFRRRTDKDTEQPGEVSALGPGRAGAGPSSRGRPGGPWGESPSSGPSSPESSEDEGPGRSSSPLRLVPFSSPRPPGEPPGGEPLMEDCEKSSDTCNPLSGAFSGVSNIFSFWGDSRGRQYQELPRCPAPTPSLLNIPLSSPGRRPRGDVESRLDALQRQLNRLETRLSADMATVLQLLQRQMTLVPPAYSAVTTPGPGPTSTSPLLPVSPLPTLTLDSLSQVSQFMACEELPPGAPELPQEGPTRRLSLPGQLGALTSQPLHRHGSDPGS

Row | Structure (SMILES) | hERG current change (%, negative = inhibition) at 10uM
1 | COc1cccc(NC(=O)CN2CCN(CC(=O)Nc3ccccc3Cl)CC2)c1 | -61%
2 | CC1=NOC(=O)/C1=C/c1ccc(O)c(Br)c1 | 32.4%
3 | COc1cc(C(=O)NC2CCN(Cc3nnnn3Cc3ccc(F)cc3)CC2)cc(OC)c1OC | -0.888%
4 | COc1ccc(N=c2oc3cc(O)ccc3cc2C(=O)NCC2CCCO2)cc1 (stereo not shown) | 10.8%
5 | COc1cc(CN2CCN(Cc3ccc(C)cc3)C(CCO)C2)cc(OC)c1O (stereo not shown) | -51.6%
6 | COc1ccccc1/C=N\N=C(\N)c1ccccn1 | 15.2%
7 | CC(C)C(=O)Nc1ccc(NC(=S)NC(=O)c2cc3ccccc3o2)cc1 | 13.3%
8 | CCCCCN(C(=O)COC(=O)COc1c(C)cc(C)cc1C)c1c(N)n(CCCC)c(=O)[nH]c1=O | -14.4%
9 | Cc1ccc[n+](C(C)C(=O)Nc2ccc(C)c(C)c2)c1.[Br-] (stereo not shown) | 6.63%
10 | CCOc1ccc2c(c1)S/C(=C\c1cccs1)C(=O)N2 | 10.5%
11 | COc1ccc(C(=O)N2CCN(Cc3ccc4c(c3)OCO4)CC2)cc1[N+](=O)[O-] | -44.6%
12 | O=C(Cn1nc(Cl)nc1Cl)c1cc2ccccc2oc1=O | -16.5%
13 | Cc1ccccc1CN1CCNC(=O)C1CC(=O)N(C)CCC1CCOCC1 (stereo not shown) | 18.2%
14 | COc1ccc(CNc2c(C(=O)O)cnc3c2cnn3C)cc1 | 27.1%
15 | COc1ccc(C(c2nnnn2CC2CCCO2)N2CCN(c3cccc(C)c3C)CC2)cc1.Cl (stereo not shown) | 4.59%
16 | CCOc1cc(NC(=S)NCC2CCCO2)c(OCC)cc1NC(=O)c1ccccc1 (stereo not shown) | -10.2%
17 | c1nc(N2CCC3(CC2)OCCO3)c2[nH]cnc2n1 | 20.8%
18 | COc1ccc(N2CCN(S(=O)(=O)CCNC(=O)COc3cccc(OC)c3)CC2)cc1 | 4.17%
19 | O=C(OCCN1C(=O)c2cccc3c(N4CCOCC4)ccc(c23)C1=O)c1cccc(Cl)c1 | 1.19%
20 | O=C(NCCc1ccc(F)cc1)c1ccc([N+](=O)[O-])cc1 | -29.6%
21 | CCOC(=O)c1ccc(NC2c3ncccc3C(=O)N2Cc2ccc(F)cc2)cc1 (stereo not shown) | -1.36%
22 | O=C(NCc1ccc2c(c1)OCO2)C1CC(=O)N(c2ccc(Cl)cc2)C1 (stereo not shown) | -36.1%
23 | Cc1ccccc1-c1nc(CN2CCC(C(=O)NCc3ccco3)CC2)c(C)o1 | -73.6%
24 | Cc1c(C(=O)N/N=C/c2ccc(N(C)C)cc2)[nH]c2ccc(Cl)cc12 | 2.69%
25 | O=C(c1ccc2c(c1)OCO2)N(Cc1ccco1)C1(C(=O)NC2CCCCC2)CCCCC1 | -20.2%
26 | COc1ccc(CCNC(=O)c2cnc(Cl)c(Cl)c2)cc1 | 11.2%
27 | CCN(CCn1cccn1)C(=O)c1cc(COc2cccc3cccnc23)on1 | 15.1%
28 | N/C(=N\O)c1cn(Cc2ccccc2Cl)c2ccccc12 | -5.92%

Row | Structure (SMILES) | hERG current change (%, negative = inhibition) at 10uM
29 | O=C(COc1ccc2c3c(c(=O)oc2c1)CCC3)N1C[C@H]2C[C@@H](C1)c1cccc(=O)n1C2 | -13.1%
30 | CC(=O)c1c(C(=O)O)[nH]c(C(=O)O)c1C | 12.9%
31 | O=C(COc1ccccc1Cl)Nc1ccc(CN2CCCCC2)cc1 | -33.7%
32 | CCOC(=O)c1cnn2c(C(F)(F)F)cc(-c3ccco3)nc12 | -9.64%
33 | COC(=O)c1ccc(Nc2nc3ccc(C)cc3n3cnnc23)cc1 | 9.32%
34 | c1ccc(Cn2nnc3c(NCc4ccc5c(c4)OCO5)ncnc32)cc1 | -6.92%
35 | Cc1ccc(N2CC(=O)N(NC(=O)CN3CCN(c4ccccc4)CC3)CC2=O)cc1 | 18.3%
36 | O=C(C1CC1)N1CCc2cc(S(=O)(=O)NCc3ccccc3)ccc21 | 12.3%
37 | C/C(=N\NC(=O)c1nc2ccccn2c1C)c1cc2ccccc2o1 | -63%
38 | CC(C)c1ccc(NC(=O)N(CCc2nc3ccccc3[nH]2)C2CCCC2)cc1 | -8.09%
39 | Cc1cc(C)n2nc(C(=O)N/N=C/c3cn(C)nc3C)nc2n1 | 20.3%
40 | CCn1c(SC)nnc1C1CCN(S(=O)(=O)c2ccc(OC)cc2)CC1 | -4.3%
41 | Cc1cccc(C(=O)NC(C)c2ccc(-n3ccnc3)cc2)c1C (stereo not shown) | -42.2%
42 | Cc1ccnc(NC(=O)Cc2ccc(F)cc2)n1 | -3.31%
43 | O=C(Nc1ccc2nc(-c3cccs3)[nH]c2c1)c1ccco1 | -8.17%
44 | COc1cccc(Nc2nc3ccccc3nc2NS(=O)(=O)c2ccc(NC(C)=O)cc2)c1 | 24.3%
45 | COc1cccc(N(C(=O)c2snc(C(N)=O)c2N)C(C(=O)NCC2CCCO2)c2ccc3ncccc3c2)c1 (stereo not shown) | -16.8%
46 | CCOC(=O)/C=C/C(=O)OCc1csc(CC(=O)Nc2ccccc2C)n1 | -1.99%
47 | COc1ccc(C(=O)Nc2ccc3[nH]ncc3c2)cc1 | 11.9%
48 | COc1ccc(C2C(C(N)=O)=C(C)Nc3ncnn32)cc1 (stereo not shown) | -4.65%
49 | COc1ccc(OCC(O)CN(CC(O)COc2ccc(OC)cc2)c2cccc(O)c2)cc1 (stereo not shown) | 2.41%
50 | O=C(NCc1cccnc1)c1cc(Sc2ccccc2Cl)nc2ccccc12 | -5.45%
51 | Cc1nc(-c2ccc(NC(=O)CC(C)C)cc2)cs1.Cl | 7.49%
52 | CC(C(=O)Nc1ccc(Cl)cc1Cl)N1C(=O)NC2(CCCC2)C1=O (stereo not shown) | -3.64%
53 | CCCNC(=S)N1CCC(C(=O)c2ccc(F)cc2)CC1 | -8.84%
54 | COc1ccc(-c2nn(-c3ccccc3)cc2C(=O)O)cc1 | 19.2%
55 | CCCCC(=O)NC(=S)NNC(=O)CC | 12.3%
